Binding signal data for 22 molecules are collected here from PMC12136788.

This is one part of the list.

B1: chr17:58301230:58302447:-|three_prime_utr|ENSG00000005379|control|control|control (ssRNA)
RNA: GGGAGUUCUACAGUCCGACGAUCGGGAAUCAAAGAGCCUUGGUGAAGGUCAGAGCUAAAUGGCUCCUUAAGGAUGAACUCUCUAGAGAAGCACCUUCCUCCUACAGGAGGGGAAACUGAGCCCACAGUGAGUAUGUAACUUGACAACAGAGGAUUGAGCAUCA
B2: chr12:108522223:108522324:-|3pUTR|ENSG00000075856|msi1|FALSE|unique (ssRNA)
RNA: GGGAGUUCUACAGUCCGACGAUCUCAGUCGGGUUUUCUAUAUUUUUUUAACUUAACAUUUUUUAAUAUAACCGAUUAAAAAGUAGACAGAACAGUAAAAUAAACUCCUGUGUGCCUACCAUUCAGCUUCCAGCAUUCCUCAACCAACAGAGGAUUGAGCAUCA
B3: chr11:113276125:113276317:+|3pUTR|ENSG00000149294|msi1|total|mutant (ssRNA)
RNA: GGGAGUUCUACAGUCCGACGAUCGUCCGUGUAAAACCGCUGCCUUUUAUUUUUUAAGGUAACAAAUACCACCCCGAGGCCGGCCGGAUCAUCCCACGCUUGCUUCCGCACAGGACAACUUUACAAAACAUGAUUGUUUACAGCCAACAGAGGAUUGAGCAUCA
B4: chr14:53039561:53039662:-|3pUTR|ENSG00000100523|unk|FALSE|unique (ssRNA)
RNA: GGGAGUUCUACAGUCCGACGAUCUCAAACUAUAUUUUUGUUACAGCAAACUACAUUCCAUUUGCCUUUAAAUGCUUGCAUUUUAGUUAUUGUACUGGCUACCUGUUUUUGUCUGCCCAGCAUCCUGUUUCCCCUCCUUUUGGACAACAGAGGAUUGAGCAUCA
B5: chr11:130877263:130877364:-|3pUTR|ENSG00000120451|msi1|FALSE|unique (ssRNA)
RNA: GGGAGUUCUACAGUCCGACGAUCCAGUCCUUUAACAACACCAGCAUGAAGGCAAAGGUGUUUUGUCAGACUGCAACAUCUAUUAGAAAGGCAAGGCAACUGGGAAUUGCUGGAGAAGGAUAAAUCAGGAGGAAUUGCUGGUAGCAACAGAGGAUUGAGCAUCA
B6: chr11:64204363:64204470:+|3pUTR|ENSG00000168439|unk|total|mutant (ssRNA)
RNA: GGGAGUUCUACAGUCCGACGAUCGCCCUCGAGUUCCAUGUCUCUUUCCCCUGCCCCCCGUUGCUGUCUCGGCUGCUCUCCCACCGUUGGUUUUUUUUUUAUUUGGGGCAGUGGGCAUGUUAUGGGGAGGGGAGGGGGUUCUUCCAACAGAGGAUUGAGCAUCA
B7: chr12:54395726:54395827:-|3pUTR|ENSG00000161638|msi1_unk|total|mutant (ssRNA)
RNA: GGGAGUUCUACAGUCCGACGAUCAAGAACACUAACUAUGCAUGGUGCCCCAGGACCAGCUCAGGACAGAUGCCACACAAGGACCGAUGCUGGCCCAGGGCCCAGAGCCCAGCUCCAAGGGGAAUCAGAACUCAAAUGGGGCCACAACAGAGGAUUGAGCAUCA
B8: chr11:85659139:85659240:-|3pUTR|ENSG00000137504|msi1|total|mutant (ssRNA)
RNA: GGGAGUUCUACAGUCCGACGAUCGUCUGAUUCCGUAAAAUUUUAAAGCUAAAUAAUCUGAUGACUCUUGAAAGUUUAAUUGGCCGUAUGACAUUUAUGUUUUUUUCCCCCAGACUCACAGCCAAUACAAAGUUUUGAGACUCCCAACAGAGGAUUGAGCAUCA
B9: chr1:185309019:185309167:-|CDS|ENSG00000116679|unk|FALSE|unique (ssRNA)
RNA: GGGAGUUCUACAGUCCGACGAUCGCACACAGAGCAGUGCUAGCUUGCUGCAGUCCCUAUUUAUUUGAAAUCUUUAAUAGUGAUAGUGAUCCUCAUGGAAUUUCUCACGUUAAAUUUGAUGAUCUCAAUCCAGAAGCUGUUGAACAACAGAGGAUUGAGCAUCA
B10: chr18:9400975:9401076:+|3pUTR|ENSG00000128791|msi1|total|mutant (ssRNA)
RNA: GGGAGUUCUACAGUCCGACGAUCUAUAAAAACCGAUAAUGCUCUUGGACACAUUUUGUAUUAUUCAUGAUCUGAACCGCCGUCCGUUAAAAGAUCAUUUGUAAUAUUAUGAUCAACUGUUAUAAAUUAAGGUCUUAAUACCUUCAACAGAGGAUUGAGCAUCA
B11: chr17:42200006:42200107:-|3pUTR|ENSG00000173757|unk|total|mutant (ssRNA)
RNA: GGGAGUUCUACAGUCCGACGAUCAAGCUGCCGUUUGCCUUGGCUUGGUUUCAUACACUGAUUUAUUUUUCUAUGCCAGGCAGCCGAGUCUCUCUGCCUCUGAGGAGCAGGCUACCCGCAUCCCACUCAGCCCCUCCCUACCCCCAACAGAGGAUUGAGCAUCA
B12: chr12:50175971:50176072:-|3pUTR|ENSG00000050405|msi1|FALSE|bound_elsewhere (ssRNA)
RNA: GGGAGUUCUACAGUCCGACGAUCCACAGUAUUCUCAGGGUGAAAUUAAACCAACUAUAGGCCUUUUUCUUGGGAUGAUUUUCUAGUCUUAAGGUUUGGGGACAUUAUAAACUUGAGUACAUUUGUUGUACACAGUUGAUAUUCCAACAGAGGAUUGAGCAUCA
B13: chr5:141515350:141515460:-|3pUTR|ENSG00000131504|msi1_unk|total|mutant (ssRNA)
RNA: GGGAGUUCUACAGUCCGACGAUCCUCAGCUUUCCAUCCCCAGCCCGGAAGAAAGAAUGGCACUCUUGGGCUUGGCCCAGAAUCCGAGUUAUCCGAGCAAGAGAGAGCUCCGGAAGCAUGAGGGCAACUACCGUGAGGCCUUAUCAACAGAGGAUUGAGCAUCA
B14: chr3:48857559:48857660:-|3pUTR|ENSG00000178537|unk|FALSE|unique (ssRNA)
RNA: GGGAGUUCUACAGUCCGACGAUCGGCUGAAGGCUGCUCAAGUUCACUUCUGGAUGCUGGAAGCUGUCGUUGAGGAGAAGGAGUAGUAAGCAGAACUAAGCAGUCUUGGAGGGCAAGGGGAGGGGAAUGGUGAGAUCCGAGCCCCAACAGAGGAUUGAGCAUCA
B15: chr12:14501823:14501924:+|3pUTR|ENSG00000171681|unk|FALSE|unique (ssRNA)
RNA: GGGAGUUCUACAGUCCGACGAUCUUUUGUUGUUUGCUCUUUUGCUUUAAAUAUUCUCCAAAUUACCAUUUAUGCAACAUGGUUAGGGUUAAUACUGCAUGGUAUUCAUUUAUCUUGUUUCAUGAACUUUCCAGUACUGUACAACAACAGAGGAUUGAGCAUCA
B16: chr5:149977868:149977977:+|CDS|ENSG00000155850|unk|FALSE|unique (ssRNA)
RNA: GGGAGUUCUACAGUCCGACGAUCUAUUAAAAAGCUGCAGAAGAAUUGCCAGUGCAGUCCAGCCAAAGCCAAAAAUAUGAUUUUAGGUUUCCUUCCUGUUUUGCAGUGGCUCCCAAAAUACGACCUAAAGAAAAACAUUUUAGGCAACAGAGGAUUGAGCAUCA
B17: chr11:35810521:35810622:+|3pUTR|ENSG00000166326|unk|FALSE|bound_elsewhere (ssRNA)
RNA: GGGAGUUCUACAGUCCGACGAUCCCAGAAACCAUAAGACUCAGGCAGUUCUUGAUUCUGGAGGCCUGCCUGGUAAGAUAAGAUAGUAUAAUUUGGAACUGAGAACAUACCAGAAACAGCAGAACGAGGGCCAGAGCAGAAAAACAACAGAGGAUUGAGCAUCA
B18: ENSG00000136451:be:win_1301|CDS|ENSG00000136451|bound_else_gene|NA|bound_elsewhere_windowed (ssRNA)
RNA: GGGAGUUCUACAGUCCGACGAUCUUAACAUAACCAGCCCAAUGAACAUAGGGCAUCCUGUAACUAUAACCAGUCCAUUAUCCAUGACCUCUCCUUUAACACUCACUACCCCAGUCAACCUCCCCACCCCCGUCACUGCCCCAGCAACAGAGGAUUGAGCAUCA
B19: ENSG00000070961:be:win_6201|3pUTR|ENSG00000070961|bound_else_gene|NA|bound_elsewhere_windowed (ssRNA)
RNA: GGGAGUUCUACAGUCCGACGAUCAUCCCAAAUGUUUUUAAUCUUUGUAUAUUUUUUAAAAAUCCUUUUCUCCUCAUCAUUGCCUUUUUUGUGGUUGUAAAUAGACUUACUUGCACUUUGAAGAUGAGUUACUCCUUGUCAUCUCAACAGAGGAUUGAGCAUCA
B20: chr19:15272971:15273072:-|CDS|ENSG00000141867|msi1|total|mutant (ssRNA)
RNA: GGGAGUUCUACAGUCCGACGAUCGUCUGCGGAGAGCGGCCCUGGGACGAGAUUGAGAAAUCUGCCAGUAAUGGGGGAUGGACCCGAAACUUCCCAAAUGUCUACAACACAGGCCCAGGCCCAACCCCAGCCAGCCAACGCAGCCAACAGAGGAUUGAGCAUCA
B21: chr8:17299120:17299221:-|3pUTR|ENSG00000003987|unk|total|mutant (ssRNA)
RNA: GGGAGUUCUACAGUCCGACGAUCUCCUCAUUAUUUAAAAAUGCUAAACCUUGUAUCUCACUUUUUCUCUAACACUGAUUUAACCGCUAACGAGGCCGAAGCAACAUUCAUUCUCCUGGUCUUACAUAUGAAUUUAAGUAUCAGCAACAGAGGAUUGAGCAUCA
B22: chr19:1230895:1231275:-|CDS|ENSG00000099625|control|control|control (ssRNA)
RNA: GGGAGUUCUACAGUCCGACGAUCUCAGUAGAUGGAGGUGCUAGGGGUGGACCUGUGGGCCCUUGCCCCCCUUCGCCCCCCCCUAGGCGGCCCAGGGAGCGCUCUCCAGGCCCCGUGGACACGCGCUCGCCUGCCUCCAGCGGCCAACAGAGGAUUGAGCAUCA

The target in the assay is T1, UNK ZnF1-6 (called full-length) (human, UniProt Q9C0B0 30-357).
T1 sequence: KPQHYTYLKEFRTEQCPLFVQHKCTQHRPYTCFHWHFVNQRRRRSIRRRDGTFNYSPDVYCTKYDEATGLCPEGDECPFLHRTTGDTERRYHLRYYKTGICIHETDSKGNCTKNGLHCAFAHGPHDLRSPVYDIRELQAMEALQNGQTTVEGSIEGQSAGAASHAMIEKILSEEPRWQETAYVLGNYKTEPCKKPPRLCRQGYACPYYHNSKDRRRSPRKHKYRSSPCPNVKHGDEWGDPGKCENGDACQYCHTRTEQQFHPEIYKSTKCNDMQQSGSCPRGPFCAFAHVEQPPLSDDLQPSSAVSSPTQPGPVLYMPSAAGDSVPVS
As to the kind of experiment: nsRBNS (natural sequence RNA bind-n-seq); RBNS binding buffer (assumed for nsRBNS): 25 mM Tris pH 7.5, 150 mM KCl, 3 mM MgCl2, 0.01% Triton X-100, 500 ug/ml BSA, 20 U/ml SUPERase-In, 4 C; UNK is unkempt and MSI1 is Musashi-1; names of the RNAs are library labels; protein concentration not given here; high values mean tight binding.
Molecule B1 displayed a binding signal of 0.854 enrichment R.

B2 gave a binding signal of 0.786 enrichment R.

With B3, the binding signal came out at 0.91 enrichment R.

With B4, the binding signal turned out to be 0.736 enrichment R.

For B5, the binding signal amounted to 1.27 enrichment R.

For B6, the binding signal was 1.32 enrichment R.

The molecule B7 had a binding signal of 0.826 enrichment R.

As to B8, the binding signal turned out to be 0.823 enrichment R.

The molecule B9 returned a binding signal of 0.523 enrichment R.

Regarding B10, the binding signal is 0.466 enrichment R.

Regarding B11, the binding signal is 1.13 enrichment R.

B12 returned a binding signal of 0.659 enrichment R.

As to B13, the binding signal was determined as 0.58 enrichment R.

B14 came in with a binding signal of 0.982 enrichment R.

As for B15, the binding signal came out at 0.457 enrichment R.

On to B16, for which the binding signal was 0.277 enrichment R.

For B17, the binding signal came to 1.77 enrichment R.

On to B18, for which the binding signal is 1.34 enrichment R.

B19 came in with a binding signal of 0.982 enrichment R.

The molecule B20 had a binding signal of 0.95 enrichment R.

B21 displayed a binding signal of 0.98 enrichment R.

The molecule B22 returned a binding signal of 0.568 enrichment R.
